Assay results: the supplement of paper PMC5919970
Counter-ions that a name gives are not always drawn. Over roughly 2,000 compounds, “fractional viability relative to vehicle” has its median near 0.91; the lowest 2% begin near 0.045. Some of the results follow.

System: TYKNU
Assay: fractional viability relative to vehicle; TYKNU is a high-grade serous ovarian cancer line; higher = less growth inhibition
Details: 72 h
Summary of the method: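 TYKNU control cells or lentiCRISPRv2 knockout derivatives were seeded at 500 cells per well into drug-stamped 384-well plates holding a ~2100-compound library at 2 or 10 μM, in duplicate. Cells were grown at 37 °C in 5% CO2 in RPMI 1640 with 10% FBS, and drug treatment lasted 72 h. Viability was read by Cell Titer Glo luminescence. Duplicate treatment wells were averaged and normalised to duplicate control wells from the same plate position.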

[1] = 2uM, genotype: DNM1L knockout (sgDNM1L #1)
[2] = 2uM, genotype: sgCTRLA1 (non-targeting control)
[3] = 10uM, genotype: DNM1L knockout (sgDNM1L #1)
[4] = 10uM, genotype: sgCTRLA1 (non-targeting control)

SMILES	fractional viability [1]	fractional viability [2]	fractional viability [3]	fractional viability [4]
CN1[C@@H]2CC[C@H]1C[C@@H](OC(=O)C(CO)c1ccccc1)C2 (stereo partly specified) [Atropine sulfate monohydrate]	1.01	0.93	0.897	1.01
CCOc1ccccc1-n1c(C(C)N2CCN(C(=O)COc3ccc(Cl)cc3)CC2)nc2ccccc2c1=O (stereo unspecified) [Erastin]	0.123	0.0716	0.0411	0.0416
CNCC(O)c1ccc(O)cc1 (stereo unspecified) [Synephrine HCl]	0.901	1.07	0.806	1
CNCC(O)c1ccc(O)cc1 (stereo unspecified) [Synephrine]	0.813	0.984	0.676	0.905
N#C[C@H](O[C@@H]1O[C@H](C(=O)O)[C@@H](O)[C@H](O)[C@H]1O)c1ccccc1 [Laetrile]	0.984	1.23	0.709	1.16
C[C@]12CCC(=O)C(O)=C1CC[C@@H]1[C@@H]2CC[C@]2(C)C(=O)CC[C@@H]12 [Formestane]	0.962	1.12	0.81	1.15
COc1ccc(C(CN(C)C)C2(O)CCCCC2)cc1 (stereo unspecified) [Venlafaxine]	0.97	1.13	0.85	1.16
Cc1sc2c(c1C)C(c1ccc(Cl)cc1)=N[C@@H](CC(=O)Nc1ccc(O)cc1)c1nnc(C)n1-2	0.385	0.445	0.375	0.31
CCc1c(C(=O)C(N)=O)c2c(OCC(=O)O)cccc2n1Cc1ccccc1	1.09	1.02	0.94	0.973
Cc1cc2c(C(C)C)c(O)c(O)c(C=O)c2c(O)c1-c1c(C)cc2c(C(C)C)c(O)c(O)c(C=O)c2c1O [Gossypol]	0.9	1.04	0.253	0.247
CC(C)NCC(O)c1ccccc1Cl (stereo unspecified) [Clorprenaline HCl]	0.688	0.822	0.635	0.784
C[C@@H]1[C@H](O)[C@@H](C)/C=C/C=C/CC/C=C/C=C/C=C/C=C/[C@H](O[C@H]2O[C@@H](C)[C@H](O)[C@@H](N)[C@H]2O)C[C@@H]2O[C@](O)(C[C@@H](O)[C@H](O)CC[C@@H](O)C[C@@H](O)C[C@@H](O)CC(=O)O[C@H]1C)C[C@H](O)[C@H]2C(=O)O [Nystatin (Fungicidin)]	0.929	1.11	0.854	1.03
CN(C)C(=O)Oc1ccc[n+](C)c1 [Pyridostigmine Bromide]	1	1.11	1.06	1.08
CN1CCN(c2nc3ccccc3nc2Cl)CC1	0.991	1.07	0.842	0.931
CCN(CC)C(=O)c1ccc(C2=CC3(CCNCC3)Oc3cccc(O)c32)cc1	1.05	1.03	0.914	0.931
O=c1[nH]c2ccc(Cl)cc2c(N[C@@H]2CN3CCC2CC3)c1-c1nc2ccccc2[nH]1	0.154	0.195	0.0777	0.0446
CCc1cc2c(s1)-n1c(C)nnc1CN=C2c1ccccc1Cl [Etizolam]	0.778	1	0.707	0.96
Cc1sc2c(c1C)C(c1ccc(Cl)cc1)=N[C@@H](CC(=O)OC(C)(C)C)c1nnc(C)n1-2	0.37	0.516	0.278	0.394
Cn1c(COP(=O)(NCCBr)NCCBr)cnc1[N+](=O)[O-]	1.47	1.27	0.89	1.27
CCC1(C)CC(=O)NC(=O)C1 [Bemegride]	0.954	1.13	0.798	0.959

SMILES	fractional viability [1]	fractional viability [2]	fractional viability [3]	fractional viability [4]
CCN(Cc1ccc(Cl)nc1)/C(=C/[N+](=O)[O-])NC [Nitenpyram]	0.733	1.08	0.638	0.862
Cc1ccccc1-n1c(Cn2ncc3c(N)ncnc32)nc2cccc(C)c2c1=O	0.87	1.14	0.731	1.15
C/C(O)=C(\C#N)C(=O)Nc1cc(Br)ccc1Br	0.782	0.916	0.721	0.699
OC(c1ccccc1)(c1ccccc1)C1CCNCC1 [Azacyclonol]	1.08	1.1	0.675	1.09
COc1cc(OC)c(OC)cc1C=O [Asaraldehyde]	1.04	1.26	0.869	1.22
C=C1C[C@@H]2[C@H](CC[C@]3(C)C(=O)CC[C@@H]23)[C@@]2(C)C=CC(=O)C=C12 [Exemestane]	1.03	1.05	0.729	0.967
C[C@H]1CNCCc2ccc(Cl)cc21 [Lorcaserin HCl]	1.12	1.15	0.714	1.04
CCCCCCCCCCCCCCCC[n+]1ccccc1 [Cetylpyridinium Chloride]	0.216	0.196	0.0152	0.0105
CCCN1CCO[C@@H]2c3cc(O)ccc3OC[C@H]21	1.06	1.06	1.07	1.1
Cc1ccc(-n2nccn2)c(C(=O)N2CCN(c3nc4cc(Cl)ccc4o3)CC[C@H]2C)c1 [Suvorexant (MK-4305)]	0.969	1.14	0.861	1.04
CN1C(=O)CCS(=O)(=O)C1c1ccc(Cl)cc1 (stereo unspecified) [Chlormezanone]	1.21	0.939	0.952	0.831
COc1cc(C)[nH]c(=O)c1CNC(=O)c1c(C)n([C@H](C)C2CCOCC2)c2ccccc12	0.85	0.972	0.755	0.698
O=P1(N(CCCl)CCCl)NCCCO1 (stereo unspecified) [Cyclophosphamide Monohydrate]	1.02	1.17	0.845	0.956
c1ccc2c(c1)sc1ccccc12 [Dibenzothiophene]	0.939	1.1	0.765	1.03
C[C@]12CC[C@H](O)CC1=CC[C@@H]1[C@@H]2CC[C@]2(C)C(=O)CC[C@@H]12 [Dehydroepiandrosterone (DHEA)]	0.916	1.14	0.747	0.993
COc1ccc(CC2NCCc3cc(OC)c(OC)cc32)cc1OC (stereo unspecified) [Tetrahydropapaverine HCl]	0.891	1.06	0.955	1.01
c1ccc([C@@H]2C[C@H]2NC2CCNCC2)cc1	0.728	0.964	0.712	0.824
CC[C@H](C)[C@@H]([C@@H](CC(=O)N1CCC[C@H]1[C@H](OC)[C@@H](C)C(=O)N[C@H](C)[C@@H](O)c1ccccc1)OC)N(C)C(=O)[C@@H](NC(=O)[C@@H](NC)C(C)C)C(C)C [Monomethyl auristatin E (MMAE)]	0.0977	0.0889	0.0769	0.0612
O=[N+]([O-])c1ncc[nH]1 [Azomycin]	0.753	1.09	0.757	0.975
CC(C)OC(=O)[C@H](C)N[P@](=O)(CO[C@H](C)Cn1cnc2c(N)ncnc21)Oc1ccccc1 [Tenofovir Alafenamide (GS-7340)]	0.811	0.941	0.828	0.76

SMILES	fractional viability [1]	fractional viability [2]	fractional viability [3]	fractional viability [4]
O=c1cccc2n1C[C@@H]1CNC[C@H]2C1 [Cytisine]	1.07	1.04	1.02	0.97
CCOC(=O)c1cncn1[C@H](C)c1ccccc1 [Etomidate]	1.06	1.16	0.909	1.31
CC(O)(CS(=O)(=O)c1ccc(F)cc1)C(=O)Nc1ccc(C#N)c(C(F)(F)F)c1 (stereo unspecified) [Bicalutamide]	1.02	1.17	0.893	1.08
CCN1CCN(C(=O)Cc2ccc(Nc3ncc(F)c(Nc4ccc(C(=O)Nc5ccccc5Cl)cc4)n3)cc2)CC1 [Aurora A Inhibitor I]	0.904	0.926	0.0479	0.0775
CC(C)(C)c1cc(C=C(C#N)C#N)cc(C(C)(C)C)c1O [Tyrphostin 9]	0.406	0.379	0.129	0.128
O=C(O)c1nn(Cc2ccc(Cl)cc2Cl)c2ccccc12 [Lonidamine]	0.961	1.06	0.87	1.16
Cc1cc(C(C#N)c2ccc(Cl)cc2)c(Cl)cc1NC(=O)c1cc(I)cc(I)c1O (stereo unspecified) [Closantel Sodium]	0.98	1.19	0.879	0.97
Cc1cc(C(C#N)c2ccc(Cl)cc2)c(Cl)cc1NC(=O)c1cc(I)cc(I)c1O (stereo unspecified) [Closantel]	1.13	1.17	0.948	1.1
O=C1CC[C@@]2(O)[C@H]3Cc4ccc(O)c5c4[C@@]2(CCN3CC2CC2)[C@H]1O5 [Naltrexone HCl]	1.02	1.04	0.79	1.02
Cn1c(CCCC(=O)O)nc2cc(N(CCCl)CCCl)ccc21 [Bendamustine HCl]	1.04	1.09	0.902	1.02
CC(NC(C)(C)C)C(=O)c1cccc(Cl)c1 (stereo unspecified) [Amfebutamone HCl]	1.06	1.06	0.953	0.919
CC(C)(C)c1cc(C=C(C#N)C#N)cc(Br)c1O	1.21	1.08	1.09	0.939
CC(C)[C@]12O[C@H]1[C@@H]1O[C@]13[C@]1(O[C@H]1C[C@H]1C4=C(CC[C@@]13C)C(=O)OC4)[C@@H]2O [Triptolide (PG490)]	0.337	0.253	0.286	0.237
CN(C)CCc1ccc(O)cc1 [Hordenine]	0.84	1.21	0.83	1.16
COC1=C[C@@H]2[C@@H]3Cc4ccc(OC)c(O)c4[C@]2(CCN3C)CC1=O [Sinomenine]	0.947	1.26	0.824	1.2
COc1ccc(N(C(=O)Oc2c(C)cccc2C)c2ccnc(Nc3ccc(N4CCN(C)CC4)cc3)n2)c(OC)c1	0.822	0.958	0.662	0.666
C/C(=C\c1csc(C)n1)[C@@H]1C[C@@H]2O[C@@H]2CCC[C@H](C)[C@H](O)[C@@H](C)C(=O)C(C)(C)[C@@H](O)CC(=O)O1 [Epothilone A]	0.211	0.264	0.235	0.323
CN1[C@@H]2C[C@@H](OC(=O)[C@H](CO)c3ccccc3)C[C@H]1[C@@H]1O[C@@H]12 [Scopolamine HBr]	0.974	1.22	1.02	1.16
[O-][n+]1ccccc1[S-].[O-][n+]1ccccc1[S-].[Zn+2] [Zinc Pyrithione]	0.0424	0.0207	0.0251	0.0128
